These results are taken from PubChem BioAssay AID1347073 (National Center for Advancing Translational Sciences (NCATS), 2019).

Molecules are shown by their SMILES. About 200 (0.44%) of roughly 45,000 compounds were called active. Roughly 7% stayed inconclusive and do not appear here. Calls follow the shape of the dose curve; as a rule, active = well fitted activation curve with a large enough effect; inconclusive = small, poorly fitted or top-dose-only effect; inactive = no such curve, though single readings can be large or run the other way. Some of the results follow.

The experiment can be described thus: qHTS of TDP-43 Inhibitors: NCGC Sytravon Library Screen. Also: 0% is about no effect; nearly all actives have a fitted effect of over 55% in size. The settings on record: yeast TDP-43 toxicity rescue, BacTiter-Glo growth, 24 h; series mostly up to 46.1 µM; growth rescue (activation): at the top concentration. Put shortly: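 TDP-43-expressing yeast, pregrown in raffinose, seeded at OD600 0.02 in galactose medium with compound for 24 hr at 30 deg C. Growth read by BacTiter-Glo luminescence, so rescue of toxicity appears as activation.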
Take `O=C(N/N=C/c1[nH]c2ccccc2c1Cl)c1cccc(Br)c1`: the “growth rescue (activation)” value is inactive: -1.29%.

Take `Cc1ccc[n+](CC(=O)N2CCCCC2)c1C`: the “growth rescue (activation)” value is inactive: -4.67%.

As to `CCCS(=O)(=O)NC(=O)C1(C)CCN(C(=O)Cc2ccc(OC)c(OC)c2)C1` (stereo not given), the “growth rescue (activation)” value was inactive: -2.19%.

As to `COc1ccc2[nH]c(C)c(C(=O)CN3CC(C)OC(C)C3)c2c1` (stereo not given), the “growth rescue (activation)” value was inactive: 25.7%.

As for `COCCNC(=O)C1(C)CCCN(C(=O)c2ccco2)C1` (stereo not given), the “growth rescue (activation)” value was inactive: 5.65%.

Take `Cn1nnnc1SCSc1nnnn1C`: the “growth rescue (activation)” value is inactive: -15.7%.

Regarding `Cc1ccsc1C(=O)OCC(=O)NCC1CCCO1` (stereo not given), the “growth rescue (activation)” value is inactive: -8.46%.

As for `OC[C@@H]1CN(Cc2ccc(Cl)cc2)C[C@H](n2cnc3c(Nc4ccccc4)ncnc32)O1`, the “growth rescue (activation)” value is inactive: 16.3%.

As to `O=C(NC1CCCC1)c1ccc(Cl)c(S(=O)(=O)N2CCCCC2)c1`, the “growth rescue (activation)” value is inactive: -7.88%.

`O=C(NCc1cccs1)[C@@H]1CCCN1S(=O)(=O)c1ccccc1F`: the “growth rescue (activation)” value was inactive: 19.4%.

Consider `O=C(CCc1n[nH]c(=O)[nH]c1=O)N/N=C/c1ccco1`, for which the “growth rescue (activation)” value was inactive: -2.19%.

Regarding `O=C(CCNc1n[nH]c(=O)[nH]c1=O)N/N=C/c1ccc(Cl)cc1`, the “growth rescue (activation)” value was inactive: -1.28%.

For the compound `COc1cc(OC)nc(C(NC(=O)C2CCN(Cc3ccc(Oc4ccccc4)cc3)CC2)c2ccc(F)cc2)n1` (stereo not given), the “growth rescue (activation)” value is inactive: -12%.

For the compound `COc1ccc(N(C)S(=O)(=O)c2cccc(C(=O)OCC(=O)N3CC(C)CC(C)C3)c2)cc1` (stereo not given), the “growth rescue (activation)” value is inactive: 28.6%.

For `CCCS(=O)(=O)N1CCC(C(=O)NCc2cccnc2)CC1`, the “growth rescue (activation)” value is inactive: 17.7%.

With `Cc1ccc(/C=N/Nc2cc(C)nc(NCc3ccccc3)n2)cc1`, the “growth rescue (activation)” value is inactive: -0.107%.

On to `COc1cc(OC)cc(C(=O)Nc2cccnc2)c1`, for which the “growth rescue (activation)” value was inactive: 5.2%.

Consider `Cc1cc(C(=O)NCc2ccc(F)cc2)c2ccccc2n1`, for which the “growth rescue (activation)” value is inactive: 6.79%.

Take `C/C(=C\c1ccccc1)C(=O)NCCc1ccccc1`: the “growth rescue (activation)” value was inactive: 5.1%.

`O=C(CNS(=O)(=O)c1ccccc1)Nc1ccc2c(c1)OCO2`: the “growth rescue (activation)” value is inactive: -5.26%.

Turning to `COc1ccc2cc(C(c3nnnn3C3CCCC3)N3CCOCC3)c3nnnn3c2c1` (stereo not given), the “growth rescue (activation)” value is inactive: 2.04%.

For the compound `CCOC(=O)C1(C)CCCN(C(=O)c2ccc3c(c2)OCO3)C1` (stereo not given), the “growth rescue (activation)” value is inactive: 11.1%.

With `CC(C)(C)NNC(=S)Nc1ccc(S(=O)(=O)N2CCOCC2)cc1`, the “growth rescue (activation)” value was inactive: 14.6%.

For `CSc1ccccc1C(=O)NC1CCCc2ccccc21` (stereo not given), the “growth rescue (activation)” value is inactive: 11.8%.

On to `CN(C(=O)COc1cc(C(F)(F)F)nn1C)c1ccccc1`, for which the “growth rescue (activation)” value was inactive: 12.8%.

`CCOc1cc(/C=N\NC(=O)c2ccc(C)nc2)ccc1OC(=O)c1ccc(F)cc1`: the “growth rescue (activation)” value is inactive: 1.02%.

For `CC(=O)C1=C(C)OC(N)=C(C#N)C1c1cccnc1` (stereo not given), the “growth rescue (activation)” value was inactive: 15.1%.

As for `CNC(=O)c1c(Cl)cnn1-c1ccccc1`, the “growth rescue (activation)” value is inactive: 2.09%.

For the compound `COc1cc(NS(=O)(=O)c2ccc(Cl)cc2)c(C(=O)O)cc1OC`, the “growth rescue (activation)” value was inactive: 16%.

In the case of `O=C(OCc1cc(=O)n2ccsc2n1)c1ccccc1O`, the “growth rescue (activation)” value is inactive: 26.1%.

In the case of `COc1cc(-c2cc(C(=O)OCC(=O)NC3CC3)c3ccccc3n2)cc(OC)c1OC`, the “growth rescue (activation)” value was inactive: 4.17%.

In the case of `N=C1C(c2ccccc2)=C(O)CN1c1cccc(S(=O)(=O)Nc2cccc(C(F)(F)F)c2)c1`, the “growth rescue (activation)” value is inactive: 10.6%.

For `CCOc1c(/C=C(\C#N)C(N)=O)c2ccccc2n1CC`, the “growth rescue (activation)” value is inactive: 14.2%.

As for `COC(=O)C1=C(C)Nc2nnnn2C1c1ccc(Cl)cc1Cl` (stereo not given), the “growth rescue (activation)” value was inactive: -8.7%.

Take `COC(=O)c1ccc(CSc2nnc(-c3ccncc3)o2)o1`: the “growth rescue (activation)” value is inactive: 0.814%.

Turning to `COc1cccc(/C=C/C(=O)NCc2ccc(S(N)(=O)=O)cc2)c1`, the “growth rescue (activation)” value was inactive: 20.6%.

In the case of `Cc1nnn(C23CC4CC(CC(CC(=O)Nc5cccc(F)c5)(C4)C2)C3)n1`, the “growth rescue (activation)” value was inactive: 20.9%.

Regarding `Cc1cc(C)c(Cn2c(=O)n(CCCCCC(=O)NCc3ccc4c(c3)OCO4)c(=O)c3sccc32)c(C)c1`, the “growth rescue (activation)” value is inactive: 5.57%.

Consider `COc1ccccc1CNC(=O)c1sccc1-c1ccccc1`, for which the “growth rescue (activation)” value was inactive: 40.6%.

On to `CC(=O)c1ccc(NC(=O)C2CCN(S(=O)(=O)c3cccc4nonc34)CC2)cc1`, for which the “growth rescue (activation)” value is inactive: 8.64%.

As to `CN(C)CCNc1c(N)c(=O)oc2ccccc12`, the “growth rescue (activation)” value was inactive: -2.79%.

For the compound `CCC(Oc1ccccc1)C(=O)N(CC)CC(=O)NCc1ccc(F)cc1` (stereo not given), the “growth rescue (activation)” value was inactive: 16.5%.

Regarding `O=S(=O)(c1cccc(C(F)(F)F)c1)N(CCCN1CCOCC1)Cc1cccs1`, the “growth rescue (activation)” value was inactive: -5.75%.

For `Cc1ccc(C(=O)OCC(=O)N2CC(C)OC(C)C2)cc1` (stereo not given), the “growth rescue (activation)” value was inactive: 6.45%.

Turning to `COc1cc(CN2CCNC(=O)C2CC(=O)N2CCCCO2)cc(OC)c1` (stereo not given), the “growth rescue (activation)” value is inactive: 10.1%.

For `COc1ccccc1CNC(=O)C(CCSC)NC(=O)c1cccc(S(=O)(=O)N2CCOCC2)c1` (stereo not given), the “growth rescue (activation)” value is inactive: 13.2%.

As for `COCCNC(=O)Cn1nc(-c2ccc(Cl)cc2)c2ccccc2c1=O`, the “growth rescue (activation)” value was inactive: -1.89%.

Turning to `CCOC(=O)C1=C(C)NC(C)=C(C(=O)OCC)C1C(=O)OCC(=O)N1CCOCC1`, the “growth rescue (activation)” value was inactive: 2.82%.

For the compound `COc1ccccc1NC(=O)Cc1nnc(SCC(=O)c2ccc(F)cc2)n1C`, the “growth rescue (activation)” value was inactive: -3.57%.

Take `CC1CC(=O)Nc2ccccc2N1C(=O)CSc1nnnn1C` (stereo not given): the “growth rescue (activation)” value was inactive: 1.02%.

Take `Cc1nnc(SCC2=C(C(=O)O)N3C(=O)C(NC(=O)Cn4ncc(Cl)c4C)C3SC2)s1` (stereo not given): the “growth rescue (activation)” value was inactive: 2.48%.

`O=C(CN(C(=O)Cn1nnc(-c2ccc(F)cc2)n1)c1ccc(F)cc1)NC1CCCC1`: the “growth rescue (activation)” value is inactive: -5.54%.

As to `O=C(NCc1ccccc1F)c1ccc(S(=O)(=O)Nc2cccc(C(F)(F)F)c2)cc1`, the “growth rescue (activation)” value was inactive: -11.6%.

Turning to `Cc1ccc(S(=O)(=O)N2CC=C(c3c(C)n(C)c4ccccc34)CC2)cc1`, the “growth rescue (activation)” value was inactive: -9.89%.

On to `O=C(COC(=O)C(Cc1ccccc1)NC(=O)c1ccccc1)c1ccccc1` (stereo not given), for which the “growth rescue (activation)” value was inactive: -1.83%.
